Hit rate of the full screen: of about 46,000 compounds, about 60 (0.1%) were called active. About 3% were inconclusive and are not listed. Calls come from the whole dose curve; as a rule, active = well fitted inhibition curve with a large enough effect; inconclusive = small, poorly fitted or top-dose-only effect; inactive = no such curve, though single readings can be large or run the other way. This is one part of the list.
Test: Primary qHTS assay for Inhibitors of ovarian cancer metastasis using an organotypic tumor microenvironment (TME) model.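 For activity change, negative = inhibition: plate controls were DMSO wells for no effect and tomatine positive control wells for full effect.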 Note: nearly all actives have a fitted effect of over 65% in size.
Details: SKOV3ip1-GFP adhesion/invasion on 3D omental model, fluorescence; series mostly up to 45.8 µM; activity change, negative = inhibition: at the top concentration
Method in brief: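 Primary human omental fibroblast/mesothelial 3D culture pre-formed 48 h. SKOV3ip1-GFP cells added with compounds (0.36-46 umol/L), incubated 2 h RT/16 h 37 C, fixed; GFP cells quantified at 488/509 nm.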

Compound	activity change, negative = inhibition	outcome
COc1cc2nc(NCC(C)c3ccccc3)n3nc(-c4ccccc4)nc3c2cc1OC (stereo not given)	inactive: -0.432%	
Cc1ccc(C)n1-c1nnc(N2CCCC(C(=O)NCc3ccccc3)C2)s1 (stereo not given)	inactive: -4.31%	
CCOc1nc(NC(=O)NS(=O)(=O)Oc2ccccc2Cl)nc(-c2ccccc2)n1	inactive: -7.13%	
CNC(=O)c1ccc(Nc2nnc(-c3ccc(C)c(S(=O)(=O)N4CCOCC4)c3)c3ccccc23)cc1		inactive
CCOC(=O)c1ccccc1NC(=O)N(Cc1ccco1)C1CCN(C(C)=O)CC1	inactive: -26.3%	
CCc1cccc(NC(=O)CN2C=NS(=O)(=O)c3ccccc32)c1	inactive: 3.57%	
CC(=O)Oc1ccccc1C(=O)O	inactive: -3.39%	
O=C(NCc1ccccc1)C(=O)NCC(c1cccnc1)N1CCN(c2ccccc2)CC1 (stereo not given)	inactive: 1.6%	
COc1ccc(CCNC(=O)c2nn(C)c3c2CSc2ccccc2-3)cc1OC	inactive: -1.48%	
CCc1ccc(NC(=O)CSc2nc3ccsc3c(=O)n2C(C)CC)cc1 (stereo not given)	inactive: 2.17%	
Cc1cccc(-c2nc(Cn3c(SCc4cc(C)ccc4C)nc4ccncc43)c(C)o2)c1		inactive
CC(=O)Nc1ccc(S(=O)(=O)NCCc2csc3nc(-c4cccc(C)c4)nn23)cc1		inactive
O=C(c1ccco1)n1nc(-c2ccccc2)nc1NCc1ccccc1Cl	inactive: 38.5%	
Cc1ccc(N(Cc2cccs2)C(=O)COc2ccccc2[N+](=O)[O-])cc1		inactive
COc1cc(CN(C(=O)c2oc3ccccc3c2C)C2CCS(=O)(=O)C2)cc(OC)c1OC (stereo not given)	inactive: 13.5%	
O=C(CCCn1c2ccccc2c(=O)c2ccccc21)Nc1ccc(F)cc1Cl		inactive
COc1ccccc1-n1c(SCC(=O)Nc2ccc(C)cc2)nc(O)cc1=O	inactive: 9.72%	
CNS(=O)(=O)CCc1ccc2[nH]cc(C3CCN(C)CC3)c2c1	inactive: -11.6%	
Cc1ccc(-c2nn3c(-c4ccc(C)cc4)nnc3c3ccccc23)cc1		inactive
CCc1ccc(-c2cc(C)no2)cc1S(=O)(=O)Nc1ccc(Cl)cc1	inactive: -7.02%	
COc1ccc(-c2noc(-c3ccc(NC(C)c4ccccc4)c([N+](=O)[O-])c3)n2)cc1OC (stereo not given)	inactive: 3.28%	
COc1cc(NS(=O)(=O)c2ccc3oc(=O)c4ncn(C)c4c3c2)cc(OC)c1	inactive: 7.49%	
Cc1ccc(-c2nc(S(=O)(=O)c3ccc(C)cc3)c(SCC(=O)NC3CCCCC3)o2)cc1	inactive: 4.4%	
COc1ccccc1CNC(=O)CCC1N=C2c3ccccc3N=C(SCC(=O)NCCc3ccc(OC)c(OC)c3)N2C1=O (stereo not given)	inactive: 24.8%	

Compound	activity change, negative = inhibition	outcome
COc1cccc(NC(=O)c2cc3c(=O)n(Cc4cccnc4)ccc3nc2C)c1	inactive: 0.224%	
CCCN1C(=O)c2[nH]nc(-c3ccc(F)cc3)c2C1c1ccccn1 (stereo not given)	inactive: -0.634%	
CC1CN(C(=O)N2CCC(C(=O)NC3CCCCCC3)CC2)c2ccccc2O1 (stereo not given)		inactive
COc1cccc(C2CC(=O)N3CN(C4CCCCC4)CSC3=C2C#N)c1 (stereo not given)	inactive: -6.22%	
COc1cc(NC(=O)C(CCS(C)(=O)=O)N2Cc3ccccc3C2=O)cc(OC)c1OC (stereo not given)	inactive: -2.24%	
CCOC(=O)c1c(C)[nH]c(CCC(=O)NCc2ccccc2C)c1C		inactive
CCOc1ccccc1CN(CCc1ccc2c(c1)OCO2)Cc1cccc(OC)c1OC		inactive
COc1ccc(-n2cc(C(=O)NC(C)c3ccccc3)c3ccccc3c2=O)cc1 (stereo not given)	inactive: 21.1%	
O=C(NC1CCCC1)c1ccc(CSc2nc3ccncc3n2Cc2ccc(F)cc2)cc1	inactive: 6.31%	
Cc1ccc(N2CC(c3nnc(NC(=O)c4ccco4)s3)CC2=O)cc1C (stereo not given)	inactive: -3.77%	
CCOc1ccc(NC(=O)c2ccc(-c3cccc(Cl)c3C)o2)cc1	inactive: -4.39%	
CCCCC[C@H](O)C=C[C@H]1[C@H](O)CC(=O)[C@H]1CC=CCCCC(=O)O	inactive: -15.9%	
Cc1ccc(NC(=O)Cn2cc(S(=O)(=O)N3CCCC3)c(S(=O)(=O)N3CCCC3)c2)cc1C	inactive: -8.64%	
CCOc1ccc(Cn2c(CNS(=O)(=O)c3ccc([N+](=O)[O-])cc3)nc3cccnc32)cc1	inactive: -6.47%	
Cc1cccc(C2C=C(c3ccc(F)cc3)Nc3nc4ccccc4n32)c1 (stereo not given)	inactive: 4.06%	
CCOC(=O)c1cnc2c(ccc3ccccc32)c1Nc1ccc(OC)c(OC)c1	inactive: -20.4%	
O=c1c2cc3c(nc2ncn1Cc1ccccc1F)CCCC3	inactive: -19.9%	
Cc1ccc(NC(=O)Nc2nnc(SCC(=O)N3CCC(C)CC3)s2)cc1	inactive: -24%	
COCCn1ccc2c(OCC(=O)NCc3ccc(F)cc3)cccc2c1=O	inactive: 3.2%	
O=C(Nc1nc2cccc(-c3ccc(CN4CCS(=O)(=O)CC4)cc3)n2n1)C1CC1	inactive: 15.1%	
COc1ccc(C(=O)NCCSc2c(C)[nH]c3ccccc23)cc1	inactive: 1.46%	
COc1ccc(C(=O)N2CCC(c3c[nH]c4ccccc34)(c3c[nH]c4ccccc34)CC2)cc1		inactive
COc1ccccc1-c1cc(C(F)(F)F)nc(S(=O)(=O)CCCC(=O)Nc2ccc(F)c(Cl)c2)n1	inactive: -2.94%	
COc1ccc(NC(=O)c2sc3nc(-c4cc5cccc(OC)c5oc4=O)[nH]c(=O)c3c2C)cc1	inactive: 12.3%	

Compound	activity change, negative = inhibition	outcome
Cc1c(NS(C)(=O)=O)cccc1-c1nc2ccccc2s1	inactive: -7.81%	
Cc1ccc(C)c(CN2C(=O)c3ccccc3S(=O)c3ccc(C(=O)NCCc4ccc(Cl)cc4)cc32)c1 (stereo not given)	inactive: -2.12%	
CN(C)c1ccc(CNC(=O)C2CCN(S(=O)(=O)c3cn(C)cn3)CC2)cc1		inactive
COc1ccc(NC(=O)c2cc(C3CC3)nc3c2c(C)nn3-c2ccc(C)cc2)cc1OC	inactive: -21.2%	
COc1ccccc1CNC(=O)c1oc2c(c1C)-c1nn(Cc3ccc(Cl)cc3)cc1CC2		inactive
COc1cccc(CNC(=O)NCc2noc3ccc(C)cc23)c1	inactive: -2.12%	
CCOc1ccc(N(CC)S(=O)(=O)N2CCCC(C(=O)NCc3ccc(SC)cc3)C2)cc1 (stereo not given)		inactive
COc1ccc(N2CCN(C(=O)CCS(=O)(=O)c3cc(Br)cc4c3N(C(=O)C3CC3)CC4)CC2)cc1	inactive: -6.76%	
COc1ccc(NC(=O)Nc2nnc(N3CCCCCC3)s2)c(OC)c1	inactive: 3.4%	
COc1ccc(NC(=O)CN2C(=O)COc3ccc(S(=O)(=O)N4CCOCC4)cc32)cc1Cl	inactive: -3.58%	
Cc1ccc(NC(=O)CN2C=NS(=O)(=O)c3ccccc32)c(C)c1	inactive: -1.24%	
O=C(Nc1cc2c(cc1C(=O)c1ccc(Br)cc1)OCCO2)c1ccc(Cl)cc1	inactive: -0.146%	
COc1cccc(-n2c(=O)c3cc(OC)c(OC)cc3n(CC(=O)Nc3ccccc3)c2=O)c1	inactive: 6.58%	
Cc1ccc(N2CC(NC(=O)c3ccco3)CC2=O)cc1 (stereo not given)	inactive: -9.43%	
CCOc1ccc(NC(=O)CSC2=Nc3ccccc3C3=NC(CC(=O)NCc4ccccc4OC)C(=O)N23)cc1 (stereo not given)	inactive: 4.74%	
O=C(c1ccc2c(c1)N(Cc1ccc(F)cc1)C(=O)c1ccccc1S2(=O)=O)N1CCCCCC1	inactive: 42.8%	
O=C(c1ccc2c(c1)N(Cc1ccc(Cl)cc1)C(=O)c1ccccc1S2(=O)=O)N1CCC(Cc2ccccc2)CC1		inactive
Cc1ccc(S(=O)Cc2ccc(C(=O)NC3CCCCCC3)o2)cc1 (stereo not given)		inactive
COc1ccc(CCn2c(=O)c3ccccc3n(CC(=O)Nc3cccc(C)c3)c2=O)cc1OC	inactive: 1.68%	
CC(=O)Nc1ccccc1-c1nc2ccccc2n(CC(=O)Nc2ccc(C)c(Cl)c2)c1=O	inactive: -3.19%	
CCc1cccc(NC(=O)c2c(N3CCCC3=O)c3cc(C)ccc3n2C)c1		inactive
Cc1ccc(C)c(S(=O)(=O)c2cn(C)c3cc(F)c(F)cc3c2=O)c1	inactive: 4.12%	
Cc1oc(-c2ccccc2F)nc1CS(=O)(=O)CC(=O)N1CCN(c2ccc(Cl)cc2)CC1	inactive: 2.12%	
CCS(=O)(=O)N1CCC2(CC1)OC(=O)C(C)=C2C(=O)NCc1cccc(Cl)c1		inactive

Compound	activity change, negative = inhibition	outcome
O=S(=O)(c1ccc(Br)cc1)c1nc(-c2cccs2)oc1SCc1ccc(F)cc1	inactive: 0.238%	
CCn1c(COc2cccc(C)c2)nc2ccccc21	inactive: -2.21%	
Cc1ccc(NC(=O)CSc2nc3c(c(=O)[nH]2)CCC3)cc1Cl	inactive: -12%	
CCN(C(=O)CCS(=O)(=O)c1ccc2c(c1)oc(=O)n2C)c1ccc(OC)cc1	inactive: 1.91%	
Cc1ccccc1CN1C(=O)c2ccccc2S(=O)c2ccc(C(=O)NCc3ccco3)cc21 (stereo not given)	inactive: 8.13%	
Cc1[nH]c2ccc(C(=O)Nc3ccc(F)cc3)cc2c1C	inactive: -9.18%	
CCn1c(SCC(=O)Nc2ccccc2)nc2c([nH]c3ccccc32)c1=O		inactive
CC(C)CCNC(=O)CCC(=O)N1Cc2ccccc2Oc2ncccc21	inactive: 1.79%	
Cc1ccccc1NS(=O)(=O)c1ccc2c(c1)NC(=O)CCS2		inactive
Cc1ccc(C)c(N2CCN(C(=O)C3CCN(C(=O)c4cc5sccc5n4C)CC3)CC2)c1		inactive
COc1cc2c(cc1NC(=O)COc1ccc(Br)cc1C)oc1ccccc12	inactive: 2.87%	
Cc1ccc(CNC(=O)c2ccc3c(c2)NC(=O)C(CS(=O)(=O)Cc2ccc(F)cc2)N3)cc1 (stereo not given)	inactive: 9.68%	
CN(C)c1cccc(C(=O)Nc2nc3ccc(S(=O)(=O)NC(C)(C)C)cc3s2)c1	inactive: -13.9%	
O=C(c1ccccc1)c1ccc2nc(N3CCN(c4ccccc4)CC3)c3nncn3c2c1	inactive: -2.76%	
Cc1cc2c(cc1S(=O)(=O)NCc1ccccc1)OCC(=O)N2	inactive: -1.81%	
COc1ccc(NC(=O)CCCSc2nc(-c3ccco3)cc(C(F)(F)F)n2)cc1	inactive: 2.95%	
COc1ccccc1C(=O)Nc1c(C(=O)N2CCN(c3ccccc3F)CC2)oc2ccccc12	inactive: 27.6%	
Cc1nc2ccc(S(=O)(=O)CCC(=O)Nc3ccc(C(C)C)cc3)cc2s1	inactive: -9.59%	
CCC1CCCCN1CCCNC(=O)c1cn(CC)c2ccc(S(=O)(=O)N(C)C3CCCCC3)cc2c1=O (stereo not given)	inactive: 46.8%	
CC(C)(C)c1ccc(C(=O)Nc2ccc(C(=O)OCc3cc(=O)n4ccsc4n3)cc2)cc1	inactive: -8.87%	
Cc1ccc(CNC(=O)C2(c3cccs3)CCOCC2)cc1	inactive: 3.45%	
COc1ccc(-c2cn3c(n2)sc2cc(C(=O)Nc4c(C)cccc4C)ccc23)cc1	inactive: -1.63%	
CCOC(=O)N1CCc2c(sc3c2c(=O)n(Cc2ccccc2)c(=O)n3CC(=O)Nc2cccc(C)c2)C1		inactive

From PubChem BioAssay AID1963576 (National Center for Advancing Translational Sciences (NCATS), 2024)
